Assay results from the antibiotic and cytotoxicity screens of Wong et al. (2023).
This is one part of the list.

Key:
[1] = tested on: HSkMC (human skeletal muscle cells); experiment: cytotoxicity call (relative viability < 0.9); settings: 10 µM
[2] = tested on: HepG2; experiment: cytotoxicity call (relative viability < 0.9); settings: 10 µM
[3] = tested on: S. aureus RN4220; experiment: growth inhibition call (relative growth <= 0.2); settings: 50 µM

Structure (SMILES) | cytotoxicity call [1] | cytotoxicity call [2] | growth inhibition call [3]
O=C(COc1ccc(S(=O)(=O)N2CCOCC2)cc1)NCCCn1ccnc1 | inactive | inactive | inactive
CC(C)NC(=O)Nc1ccc2c(c1)C(=O)N([C@H](C)CO)C[C@@H](C)[C@@H](CN(C)S(=O)(=O)c1ccc(F)cc1)O2 | inactive | inactive | inactive
COc1ccc2c3c([nH]c2c1)[C@@H](CO)N(C[C@]13CN(Cc2nccs2)C1)S(=O)(=O)c1ccc(cc1)C | inactive | inactive | inactive
CC(C)NC(=O)N(C)C[C@@H]1Oc2ccc(NC(=O)Cn3cnnn3)cc2C(=O)N([C@@H](C)CO)C[C@H]1C | inactive | inactive | inactive
CC=C(C)C(=O)OC1C(OC(C)=O)C2(CO)C(O)CC3(C)C(=CCC4C5(C)CCC(OC6OC(C(=O)O)C(OC7OC(CO)C(O)C(O)C7O)C(O)C6OC6OC(CO)C(O)C(O)C6O)C(C)(CO)C5CCC43C)C2CC1(C)C (centres undefined) | active | active | inactive
C[C@@H]1CN([C@H](C)CO)C(=O)c2cc(NC(=O)CCC(F)(F)F)ccc2O[C@@H](C)CCCCO[C@@H]1CN(C)CC1CCCCC1 | inactive | inactive | inactive
CO[C@H](CN(C)S(=O)(=O)c1ccc(Cl)cc1)[C@@H](C)CN([C@@H](C)CO)S(=O)(=O)c1cccc(Cl)c1 | inactive | inactive | inactive
CC(C)=CC1C(C(=O)O)C1(C)C (centres undefined) | inactive | inactive | inactive
OC[C@H]1O[C@@H](Oc2ccc(O)cc2)[C@H](O)[C@@H](O)[C@@H]1O | inactive | inactive | inactive
CC1(C)CCC(CN2CCN(c3ccc(C(=O)NS(=O)(=O)c4ccc(NCC5CCOCC5)c([N+](=O)[O-])c4)c(Oc4cnc5[nH]ccc5c4)c3)CC2)=C(c2ccc(Cl)cc2)C1 | inactive | inactive | inactive
C[C@@H]1CCCCO[C@@H](CN(C)C(=O)Nc2ccc(F)cc2)[C@H](C)CN([C@@H](C)CO)C(=O)c2cc(NC(=O)Cc3ccccc3)ccc2O1 | inactive | inactive | inactive
COc1ccc(S(=O)(=O)N(C)C[C@H]2Oc3c(NC(=O)Nc4c(C)noc4C)cccc3C(=O)N([C@H](C)CO)C[C@H]2C)cc1 | inactive | inactive | inactive
Cc1cccnc1[C@H](c1ccc(F)cc1)N(C)C(=O)C1CCN(CCOc2ccc(Cl)cc2Cl)CC1 | active | inactive | active
CC(C)CN(C[C@@H](O)[C@H](Cc1ccccc1)NC(=O)O[C@H]1CCOC1)S(=O)(=O)c1ccc(N)cc1 | inactive | inactive | inactive
Cc1noc(C)c1NC(=O)Nc1ccc2c(c1)C(=O)N([C@@H](C)CO)C[C@H](C)[C@@H](CN(C)Cc1ccccc1)OCCCC[C@@H](C)O2 | inactive | inactive | inactive
C[C@H]1CN([C@@H](C)CO)C(=O)c2cc(-c3cccnc3)cnc2O[C@H]1CN(C)Cc1ccc(Oc2ccccc2)cc1 | inactive | inactive | inactive
CS(=O)(=O)N1C[C@@H](O)COC[C@H]2O[C@H](CC(=O)NCc3ccccc3)CC[C@@H]21 | inactive | inactive | inactive
O=C1O[C@@H](c2ccccc2)[C@@H](c2ccccc2)N2[C@@H](c3ccc(OCCO)cc3)[C@]3(C(=O)Nc4ccc(C#CC5(O)CCCCCC5)cc43)[C@@H](C(=O)Nc3nc4ccccc4s3)[C@H]12 | inactive | inactive | inactive
C[C@@H](Cc1c[nH]c2ccccc12)NC(=O)CN | inactive | inactive | inactive
C[C@H]1CCCCO[C@H](CN(C)CC2CCCCC2)[C@@H](C)CN([C@@H](C)CO)C(=O)c2cc(NC(=O)Cc3ccccc3)ccc2O1 | inactive | active | inactive
C[C@@H]1CN([C@H](C)CO)C(=O)c2cccc(NC(=O)Nc3ccc(C(F)(F)F)cc3)c2O[C@@H]1CN(C)Cc1ccc(Oc2ccccc2)cc1 | active | inactive | inactive
O=C(C[C@H]1CC[C@@H]2[C@H](COC[C@@H](O)CN2C(=O)Nc2ccc3c(c2)OCO3)O1)N1CCN(c2ccccc2)CC1 | inactive | inactive | inactive
CC(C)NC(=O)N(C)C[C@H]1Oc2c(NS(=O)(=O)c3ccc(F)cc3)cccc2C(=O)N([C@@H](C)CO)C[C@@H]1C | inactive | inactive | inactive
Cc1ccc(S(=O)(=O)N(C)C[C@H]2Oc3c(NS(=O)(=O)c4cn(C)cn4)cccc3C(=O)N([C@@H](C)CO)C[C@@H]2C)cc1 | inactive | inactive | inactive
C[C@H](CO)N1C[C@H](C)[C@H](CN(C)Cc2ccc(Oc3ccccc3)cc2)Oc2ccc(NC(=O)Nc3ccccc3)cc2C1=O | inactive | inactive | inactive
CC(=O)NCCCC[C@@H]1NC(=O)[C@@H]2C[C@H](C(=O)NCc3ccc(F)cc3)[C@H](c3ccc(O)cc3)N2C1=O | inactive | inactive | inactive
COc1ccc(COC[C@]23NC(=S)N[C@H](c4ccccc4O2)[C@@H]3CO[Si](C)(C)C(C)(C)C)cc1 | inactive | inactive | inactive

Structure (SMILES) | cytotoxicity call [1] | cytotoxicity call [2] | growth inhibition call [3]
C[C@H](CO)N1C[C@H](C)[C@H](CN(C)CC2CC2)Oc2c(NS(=O)(=O)c3ccccc3)cccc2C1=O | inactive | inactive | inactive
C[C@@H]1CN([C@H](C)CO)C(=O)c2cccc(NC(=O)Nc3ccc(C(F)(F)F)cc3)c2O[C@H]1CN(C)C(=O)Nc1cccc2ccccc12 | inactive | active | inactive
C[C@@H]1CN([C@@H](C)CO)C(=O)c2cccc(NC(=O)c3cnccn3)c2O[C@@H]1CN(C)Cc1ccc2c(c1)OCO2 | inactive | inactive | inactive
C[C@@H]1CN([C@@H](C)CO)C(=O)c2cc(NC(=O)Nc3cccc4ccccc34)ccc2O[C@@H](C)CCCCO[C@@H]1CN(C)C(=O)C1CCCCC1 | active | inactive | inactive
COc1ccccc1C#Cc1cnc2c(c1)C(=O)N([C@H](C)CO)C[C@H](C)[C@H](CN(C)C(=O)c1ccc3c(c1)OCO3)O2 | inactive | inactive | inactive
COc1ccc(NC(=O)N(C)C[C@@H]2OCc3cn(nn3)CCCC(=O)N([C@@H](C)CO)C[C@@H]2C)c(OC)c1 | inactive | inactive | inactive
COc1ccc(CN(C)C[C@@H]2Oc3c(NC(=O)Nc4ccc(C(F)(F)F)cc4)cccc3C(=O)N([C@@H](C)CO)C[C@@H]2C)cc1 | inactive | inactive | inactive
C[C@H](CO)N1C[C@H](C)[C@H](CN(C)Cc2ccc(-c3ccccc3)cc2)Oc2ccc(NS(=O)(=O)c3cccs3)cc2CC1=O | inactive | inactive | inactive
Cc1noc(C)c1S(=O)(=O)Nc1ccc2c(c1)C(=O)N([C@@H](C)CO)C[C@@H](C)[C@@H](CN(C)S(=O)(=O)c1cn(C)cn1)OCCCC[C@H](C)O2 | inactive | inactive | inactive
COC(=O)[C@H]1N=C(c2ccc(OCCCOC(=O)NCCCCCC(=O)NO)cc2)O[C@H]1c1ccccc1 | inactive | inactive | inactive
C[C@H](CO)N1C[C@H](C)[C@H](CN(C)S(=O)(=O)c2cn(C)cn2)Oc2ncc(-c3ccccc3)cc2C1=O | inactive | inactive | inactive
Cc1ccc(S(=O)(=O)Nc2ccc3c(c2)C(=O)N([C@H](C)CO)C[C@H](C)[C@H](CN(C)C(=O)Nc2cccc4ccccc24)O3)cc1 | inactive | inactive | inactive
C[C@H](CO)N1C[C@H](C)[C@H](CN(C)Cc2cccc3c2OCCCO3)OCc2cnnn2CCCC1=O | inactive | inactive | inactive
Cc1cccc(S(=O)(=O)N2C[C@H](O)COC[C@H]3O[C@@H](CC(=O)NCCCN4CCOCC4)CC[C@@H]32)c1 | inactive | inactive | inactive
Cc1ccc(S[C@]2(C(=O)NCC(C)C)CC(=O)N(Cc3cc(C(F)(F)F)cc(C(F)(F)F)c3)[C@@H]2c2ccc(CO)cc2)cc1 | inactive | inactive | inactive
C[C@@H]1CN([C@@H](C)CO)C(=O)Cc2cc(NC(=O)C3CC3)ccc2O[C@@H]1CN(C)S(=O)(=O)c1ccccc1 | inactive | inactive | inactive
COC(=O)C1=C(C)NC(C)=C(C(=O)OCCN(C)Cc2ccccc2)C1c1cccc([N+](=O)[O-])c1.Cl (centres undefined) | inactive | inactive | inactive
C[C@@H]1CN([C@H](C)CO)C(=O)c2cccc(NC(=O)Nc3ccc4c(c3)OCO4)c2O[C@H]1CN(C)Cc1ccc(-c2ccccc2)cc1 | inactive | inactive | inactive
C[C@H](CO)N1C[C@H](C)[C@@H](CN(C)C(=O)c2cccc(F)c2)Oc2cc(-c3cccnc3)ccc2S1(=O)=O | inactive | inactive | inactive
C[C@H]1CCCCO[C@H](CN(C)C(=O)NC2CCCCC2)[C@@H](C)CN([C@@H](C)CO)C(=O)c2cc(NS(=O)(=O)c3cccs3)ccc2O1 | inactive | inactive | inactive
COc1ccc(CN(C)C[C@@H]2OCCCC[C@@H](C)Oc3ccc(NC(=O)Cc4ccccc4)cc3C(=O)N([C@@H](C)CO)C[C@H]2C)cc1 | inactive | inactive | inactive
O=C(O)[C@H]1[C@H](CO)[C@H]2Cn3c(ccc(-c4cncnc4)c3=O)[C@H]2N1C(=O)C1CCC1 | inactive | inactive | inactive
C[C@@H]1CN([C@H](C)CO)C(=O)c2c(c3ccccc3n2C)-c2ccccc2CO[C@@H]1CN(C)Cc1ccc(Cl)c(Cl)c1 | inactive | inactive | inactive
C[C@H](CO)N1C[C@H](C)[C@@H](CN(C)S(=O)(=O)c2cccs2)Oc2ccc(NC(=O)CCCN(C)C)cc2CC1=O | inactive | inactive | inactive
CC(C)NC(=O)Nc1ccc2c(c1)C(=O)N([C@H](C)CO)C[C@@H](C)[C@H](CN(C)S(=O)(=O)c1ccc(Cl)cc1)O2 | inactive | inactive | inactive
C[C@H]1CN([C@@H](C)CO)C(=O)c2cccc(NC(=O)C3CCCCC3)c2O[C@@H]1CN(C)Cc1ccc(Oc2ccccc2)cc1 | inactive | inactive | inactive
